In all, about 33,000 sequences were measured (“E-score (-0.5 to 0.5)”: median about -0.016, highest 2% from about 0.32 on). This is one part of the list.
The sequences below were run against T1, Stp1 (UniProt B3LFK1) (assay: PBM E-score (8-mer binding enrichment) (E-score (-0.5 to 0.5)); higher = stronger / more preferred TF binding; most listed sequences are background and not binding sites). Settings: protein concentration: 200 nM; construct: GST-full length.
T1 sequence: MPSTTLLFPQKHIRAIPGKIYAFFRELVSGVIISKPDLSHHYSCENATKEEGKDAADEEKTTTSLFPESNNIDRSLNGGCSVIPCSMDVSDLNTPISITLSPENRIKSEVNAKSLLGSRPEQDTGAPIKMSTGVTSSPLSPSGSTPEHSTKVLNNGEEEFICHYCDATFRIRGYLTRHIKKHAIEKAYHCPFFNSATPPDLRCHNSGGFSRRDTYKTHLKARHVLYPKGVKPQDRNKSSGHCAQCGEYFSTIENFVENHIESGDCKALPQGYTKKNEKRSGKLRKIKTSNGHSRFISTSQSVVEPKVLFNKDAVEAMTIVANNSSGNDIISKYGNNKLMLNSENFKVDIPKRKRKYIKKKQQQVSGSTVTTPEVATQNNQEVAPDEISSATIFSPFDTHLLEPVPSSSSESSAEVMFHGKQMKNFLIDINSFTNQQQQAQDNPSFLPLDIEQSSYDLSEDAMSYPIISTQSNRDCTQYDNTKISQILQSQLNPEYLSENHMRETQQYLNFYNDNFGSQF
How it was run: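 Bound GST-tagged yeast transcription factors, applied at about 100-200 nM to double-stranded universal all-10-mer Agilent arrays, were detected with fluorescent anti-GST. Scans were normalised with masliner. A modified Wilcoxon-Mann-Whitney statistic, the E-score, was assigned to each ungapped eight-base word pooled with its reverse complement by the Universal PBM Analysis Suite.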

Row | Sequence | PBM E-score
1 | CGACAAAA | 0.102
2 | ACCACCGA | 0.102
3 | CAACCCAG | -0.182
4 | CTGGACAA | -0.12
5 | CCTCCTGC | -0.205
6 | CGCATTAA | 0.144
7 | AACCTTGG | -0.148
8 | ACCATCTC | -0.0267
9 | CCCTCACA | -0.194
10 | AGAGGACC | -0.297
11 | CTTTTGGA | 0.0549
12 | TCAATAAA | 0.144
13 | CCGATACC | 0.0333
14 | TCCAGAGA | -0.171
15 | TCTGCCCA | -0.0964
16 | AGTGCGAT | -0.0927
17 | GGTTCAGA | -0.0328
18 | GGTTTTGA | 0.14
19 | TATTCGCA | 0.0691
20 | CGAACAAA | 0.211
21 | CTTTTCGA | 0.174
22 | GTATCGAA | 0.136
23 | AGTATCGC | 0.0252
24 | CTTCACGA | -0.234
25 | AAAGAACT | 0.0844

Row | Sequence | PBM E-score
26 | GCATGGTA | -0.0343
27 | CCATATGA | -0.0232
28 | ATAGAGGC | 0.121
29 | ATTCAGGA | 0.0535
30 | TCTCTAAA | -0.0775
31 | GCTCGAAA | 0.123
32 | ATTGTTCG | 0.261
33 | GCACGCCA | 0.0857
34 | CAACCGAG | -0.0298
35 | GCGGCGCC | 0.484
36 | ATCTCCTG | 0.0188
37 | CAGCGAAG | -0.0904
38 | GACCTCAA | -0.00129
39 | CCCACCGC | -0.0654
40 | CTAGGGAG | -0.329
41 | TGGTCCAA | -0.102
42 | GAAAGCAA | 0.196
43 | ACACGATA | 0.0591
44 | AGGTAGGA | -0.164
45 | GACCTAAA | 0.0476
46 | AACGTCGT | -0.148
47 | GTGTAGTA | -0.146
48 | CTGGCTGA | -0.0718
49 | AGCGTACG | -0.0361
50 | AGGGTCAT | -0.233

Row | Sequence | PBM E-score
51 | AACCCCGA | -0.19
52 | TGAGCGAA | 0.0336
53 | GGGCCCCC | -0.324
54 | ACCTTAGC | -0.174
55 | CCGTAAGA | -0.0261
56 | CTAGAACA | 0.0505
57 | CTCAAAGC | 0.052
58 | CCCACCAA | -0.0761
59 | AAGGCCCT | 0.0902
60 | ATTAATAG | 0.169
61 | AGTCGCAA | 0.0442
62 | AGATCCAG | 0.0493
63 | ATCAGTTC | -0.0252
64 | AATCGCGT | -0.0848
65 | CTCCACTA | -0.118
66 | GAGAGCTC | -0.302
67 | TCACCTAA | 0.0322
68 | GAATGTGA | -0.0936
69 | CATTCGCA | -0.0378
70 | AGTTGGAA | 0.155
71 | AATCGGTA | -0.0507
72 | AATTATGT | 0.138
73 | AAACGTCG | -0.00841
74 | AGAAGAGC | 0.102
75 | CCGAATCG | 0.108

Row | Sequence | PBM E-score
76 | AGACCACA | -0.08
77 | ACTACGCG | 0.175
78 | GAACTGGC | -0.0549
79 | ATAGGGGC | -0.277
80 | GCAGTGGC | 0.167
81 | CACCAGTA | 0.0127
82 | ACCGTTCC | 0.15
83 | CCGTGAGC | 0.0383
84 | AGAGACGA | -0.0255
85 | CGATCGTC | 0.104
86 | CCACAGTC | -0.328
87 | CAGCGTAA | 0.0467
88 | AAACATAT | 0.267
89 | CATTACAA | 0.094
90 | AAACTGGA | -0.0976
91 | CAGTATGG | 0.0561
92 | TCAACCGA | 0.179
93 | CAAGGCTC | 0.0922
94 | CGAGCATA | -0.188
95 | GTAACTGA | 0.0678
96 | CCCGTCCC | -0.249
97 | GTTGTGGA | -0.0929
98 | CGAAAAAC | 0.0494
99 | GGATGCAA | -0.138
100 | AAGTGCCA | 0.163

Row | Sequence | PBM E-score
101 | CACGTCTA | 0.00453
102 | GGTTATAC | 0.0428
103 | CACTGCTC | 0.0609
104 | CGGTGCGC | 0.0602
105 | AGTTCTTA | -0.0969
106 | CTATACAG | -0.0681
107 | CGCACGAG | -0.0435
108 | AGGTCTGG | -0.233
109 | AAGACACT | 0.108
110 | CGCGAGCG | -0.0583
111 | ATGAGAAT | 0.146
112 | ATATACCC | -0.0183
113 | GACATACC | 0.0342
114 | ACACTCGG | -0.0366
115 | GCTGGGAC | -0.228
116 | ATACACTG | 0.0725
117 | GTATGAAC | -0.0343
118 | AATCACTG | 0.212
119 | AATCCGTA | 0.115
120 | GCACCCTA | 0.0122
121 | AATCTTTC | -0.0966
122 | AGTAGGAG | -0.154
123 | GGGGTAAA | 0.0519
124 | AGAAGGTG | -0.079
125 | CCGCTAGA | -0.236

Row | Sequence | PBM E-score
126 | CTGGATGA | -0.0786
127 | GGGACTGA | -0.262
128 | AGAAAGCT | -0.0881
129 | TCAGATAA | 0.101
130 | ACGCCCAG | 0.0946
131 | CCGCACCC | 0.293
132 | CGCCGACC | 0.0509
133 | AGGCATCA | 0.215
134 | CGAAGAGA | -0.00011
135 | AGGAAGCG | -0.0555
136 | ACGGACCT | 0.0506
137 | GGCGGGCA | 0.0418
138 | AACAGTCC | -0.215
139 | AGATCGCA | -0.0911
140 | AGTACGAA | 0.152
141 | TAGTCGAA | 0.0218
142 | CAGTGGAC | -0.116
143 | ATGCCTCA | 0.279
144 | CGGAGCAG | -0.104
145 | GCTGGCGA | -0.0672
146 | GTAGTAGA | 0.0861
147 | CAACAACA | 0.166
148 | TATATGCA | 0.0222
149 | CGCCAGCA | -0.163
150 | ACGATACT | -0.0701

Row | Sequence | PBM E-score
151 | ATGCGTAG | -0.0597
152 | CCTGCATC | -0.0268
153 | AATGCCAG | -0.0782
154 | ATTATAGC | -0.0736
155 | CTACATAC | 0.039
156 | CGGCGAGA | 0.325
157 | ATGCCACC | -0.029
158 | ATTATCCA | 0.114
159 | GGTTTCTA | 0.122
160 | CTGTGTTA | -0.0909
161 | CCGGCCAA | -0.254
162 | CTACGGCA | 0.473
163 | GATTTAAC | 0.148
164 | GTCGTTCA | -0.0946
165 | AATTGTGG | -0.082
166 | ATAGTTAC | -0.014
167 | AACCAACC | -0.2
168 | ACAGGTCG | -0.246
169 | CACGTTAC | -0.106
170 | CTTACTTA | 0.00189
171 | CTACACTA | -0.0545
172 | GGTGTAAA | -0.156
